{"source": "PubChem BioAssay AID485281", "about": "(National Center for Advancing Translational Sciences (NCATS), 2010)", "note": "“And” between values parts separate entries of the source, which are not always exact repeats. Identical values can stand only once. Screen size: about 350,000 compounds; about 260 (0.074%) were called active. The inconclusive results got no clear call from the source; some entries with a clear call stand among them for comparison. The call rests on the fitted dose curve; in most records, active means well fitted inhibition curve with a large enough effect; inconclusive means small, poorly fitted or top-dose-only effect; inactive means no such curve, though single readings can be large or run the other way. A potency beside an inconclusive call is a rough fit, not a confirmed value. On the % scale 0 is the no-effect control and ±100 the full control effect; potency means the concentration at half of the fitted maximal effect; tags describe the fitted curve by direction and shape."}
{"target": "Ferritin light chain (Equus caballus) (UniProt P02791)", "sequence (P02791 whole entry, looked up)": "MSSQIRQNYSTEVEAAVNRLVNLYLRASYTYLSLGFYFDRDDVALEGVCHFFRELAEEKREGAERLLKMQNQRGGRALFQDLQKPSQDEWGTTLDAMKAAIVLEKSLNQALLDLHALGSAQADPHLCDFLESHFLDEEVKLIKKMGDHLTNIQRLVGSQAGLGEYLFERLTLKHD", "test": "qHTS Assay for Identification of Novel General Anesthetics; further: nearly all actives have a fitted effect of over 20% in size", "details": "apoferritin/1-aminoanthracene competitive binding, fluorescence; activity change, negative = displacement: at 77.5 µM (top of the series)", "how_it_was_run": "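Steps: apoferritin (10 uM) was premixed with half-saturated 1-AMA in PBS, compounds were pin-transferred, plates stood 10 min at room temperature, fluorescence was read at 380/535 nm, and curves were fitted with a Hill equation.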"}
{"smiles": "CC(C)OC(=O)/C(C#N)=C/c1cn(Cc2ccccc2)c2ccccc12", "Potency": "inconclusive: 8.91 µM [inhibitor, partial curve]"}
{"smiles": "Nn1c(Cc2ccccc2F)nnc1SCCOc1ccc(Cl)cc1", "Potency": "inconclusive: 22.4 µM [inhibitor, partial curve]"}
{"smiles": "O=C(CSc1nnc(Cc2ccccc2)o1)c1cc(F)ccc1F", "Potency": "inconclusive: 31.6 µM [inhibitor, partial curve]"}
{"smiles": "COc1ccc(-n2c(C)nc3sc4c(c3c2=O)CCC4)cc1", "Potency": "inconclusive: 50.1 µM [inhibitor, single point]"}
{"smiles": "O=C(CNC(=O)c1cccs1)OCC(=O)c1ccc2ccccc2c1", "Potency": "active: 14.1 µM"}
{"smiles": "COC(=O)Nc1nc(-c2ccccc2)c(C(=O)c2ccc(Cl)cc2)s1", "Potency": "inconclusive: 7.08 µM [inhibitor, partial curve]"}
{"smiles": "Cc1nc(Oc2ccccc2C)c2oc3ccccc3c2n1", "activity change, negative = displacement": "inactive: -13.9%"}
{"smiles": "Cc1cnc(NC(=O)C(C)N2CCN(C)CC2)s1", "note": "(configuration not stated)", "activity change, negative = displacement": "inactive: -9.39%"}
{"smiles": "O=C(Oc1ccccc1Cl)c1ccc(N2CCOCC2)c([N+](=O)[O-])c1", "Potency": "inconclusive: 35.5 µM [inhibitor, partial curve]"}
{"smiles": "CCOc1cc(/C=N/Nc2nc(N3CCCC3)nc(N3CCCC3)n2)ccc1O", "Potency": "inconclusive: 50.1 µM [inhibitor, single point]"}
{"smiles": "Cc1cc(C)cc(NS(=O)(=O)c2ccc3c(c2)OCC(C(=O)N2CCCC2)O3)c1", "note": "(configuration not stated)", "activity change, negative = displacement": "inactive: 2.86%"}
{"smiles": "Cc1ccc(S(=O)(=O)NC(=O)NCc2ccc3c(c2)OCO3)cc1", "activity change, negative = displacement": "inactive: -6.7%"}
{"smiles": "COc1ccc(-n2c(=O)[nH]cc(C(=O)Nc3ccc4c(c3)OCCO4)c2=O)cc1", "Potency": "inconclusive: 28.2 µM [inhibitor, partial curve]"}
{"smiles": "CC(C)OC(=O)N(C)c1ccc(C(O)(C(F)(F)F)C(F)(F)F)cc1", "Potency": "inconclusive: 17.8 µM [inhibitor, partial curve]"}
{"smiles": "COc1ccc(-c2ccc(CCC(=O)O)o2)cc1", "activity change, negative = displacement": "inactive: -3.49%"}
{"smiles": "O=C(Nc1ccc(Br)cc1)N1CCC(CN2CCCC2)CC1", "activity change, negative = displacement": "inactive: 44.7%"}
{"smiles": "CCCCCCNC(=O)C(C#N)c1nc2ccccc2nc1N1CCCC1", "note": "(configuration not stated)", "activity change, negative = displacement": "inactive: 0.821%"}
{"smiles": "O=C(Nc1cc(Cl)ccc1O)C1CC(c2c(F)cccc2Cl)=NO1", "note": "(configuration not stated)", "Potency": "inconclusive: 22.4 µM [inhibitor, single point]"}
{"smiles": "Oc1ccc(-c2nnc(SCc3ccccc3)o2)cc1", "Potency": "inconclusive: 25.1 µM [inhibitor, partial curve]"}
{"smiles": "Cc1ccc(-c2[nH]nc(N)c2N=Nc2ccccc2C)cc1", "Potency": "inconclusive: 22.4 µM [inhibitor, partial curve]"}
{"smiles": "O=[N+]([O-])c1ccc(NCc2ccccc2)nc1", "Potency": "inconclusive: 35.5 µM [inhibitor, partial curve]"}
{"smiles": "CC(C)NS(=O)(=O)c1ccc2c3c(cccc13)CC2", "Potency": "inconclusive: 25.1 µM [inhibitor, partial curve]"}
{"smiles": "COc1ccc(CNc2ncnc3c2[nH]c2ccccc23)cc1", "activity change, negative = displacement": "inactive: -7.47%"}
{"smiles": "Cn1cccc1/C=C(\\C#N)c1ccccc1", "Potency": "inconclusive: 28.2 µM [inhibitor, partial curve]"}
{"smiles": "O=C(c1cc([N+](=O)[O-])ccc1N1CCCCC1)N1CCCCC1", "Potency": "inconclusive: 8.91 µM [inhibitor, partial curve]"}
{"smiles": "O=C(/C=C/c1ccco1)NC(=S)Nc1ccccc1N1CCOCC1", "Potency": "inconclusive: 17.8 µM [inhibitor, partial curve]"}
{"smiles": "COc1cccc(-c2ccc(NC(=O)C3CCCN(Cc4cc(C)[nH]n4)C3)cc2)c1", "note": "(configuration not stated)", "Potency": "inconclusive: 20 µM [inhibitor, partial curve]"}
{"smiles": "COc1cccc2c(SCC(=O)N/N=C/c3ccc(O)c(O)c3)cc(C)nc12", "activity change, negative = displacement": "inactive: -13%"}
{"smiles": "C/C(CC(=O)NCc1ccco1)=N\\NC(=O)Cc1cccc2ccccc12", "Potency": "inconclusive: 39.8 µM [inhibitor, partial curve]"}
{"smiles": "Cc1ccccc1NCc1cccn1-c1nnc(N2CCOCC2)s1", "Potency": "inconclusive: 1.12 µM [inhibitor, full curve, poor fit]"}
{"smiles": "O=C(CSc1ncccn1)N1CCCc2ccccc21", "Potency": "inconclusive: 25.1 µM [inhibitor, partial curve]"}
{"smiles": "CN(CCO)c1nc(N)c2c(N)nc3c(c2c1C#N)CC(=O)N3C1CCCC1", "Potency": "inconclusive: 50.1 µM [inhibitor, single point]"}
{"smiles": "COc1ccc(N2CCN(C(=O)c3ccc4c(c3)NC(=O)C(CSCc3cccc(F)c3)N4)CC2)cc1", "note": "(configuration not stated)", "Potency": "inconclusive: 35.5 µM [inhibitor, partial curve]"}
{"smiles": "CC(Oc1cc(F)ccc1[N+](=O)[O-])C(=O)Nc1ccc(S(=O)(=O)N2CCCC2)cc1", "note": "(configuration not stated)", "Potency": "inconclusive: 14.1 µM [inhibitor, partial curve]"}
{"smiles": "Cc1ccccc1N/C(=N/S(=O)(=O)c1cc(F)ccc1F)c1ccccc1", "Potency": "inconclusive: 31.6 µM [inhibitor, partial curve]"}
{"smiles": "CC(c1ccccc1)n1c(-c2ccc(C(C)(C)C)cc2)n[nH]c1=S", "note": "(configuration not stated)", "Potency": "inconclusive: 22.4 µM [inhibitor, single point]"}
{"smiles": "C1CCC[C@H]2CCCN3CC[C@H](CCCCCC[C@@H]4CCCN5CC[C@H](CC1)OC45)OC23", "activity change, negative = displacement": "inactive: -0.88%"}
{"smiles": "N#C/C(=C\\c1cn[nH]c1-c1ccccc1)C(=O)NC1CCCCCC1", "Potency": "inconclusive: 22.4 µM [inhibitor, partial curve]"}
{"smiles": "O=C(Cc1ccc(F)cc1)OCC(=O)c1cc2ccccc2o1", "Potency": "inconclusive: 28.2 µM [inhibitor, partial curve]"}
{"smiles": "CC1CC=CC2C1C(=O)N(Cc1ccccc1)C2c1ccoc1", "note": "(configuration not stated)", "activity change, negative = displacement": "inactive: -6.65%"}
{"smiles": "COc1cc(/C=N/O)ccc1OCc1ccccc1Cl", "Potency": "inconclusive: 12.6 µM [inhibitor, partial curve]"}
{"smiles": "NC(=O)c1ccsc1NC(=O)COC(=O)CSc1ccc(Cl)cc1", "Potency": "inconclusive: 28.2 µM [inhibitor, partial curve]"}
{"smiles": "CCN(CC)CCCNC(=O)c1ccc2c(c1)N(Cc1c(F)cccc1Cl)C(=O)c1ccccc1S2", "activity change, negative = displacement": "inactive: -11.9%"}
{"smiles": "Cc1nn2c(=O)cc(COC(=O)c3cccc(NC(=O)COc4ccc(C)c(C)c4)c3)nc2s1", "Potency": "inconclusive: 5.62 µM [inhibitor, partial curve]"}
{"smiles": "C/C(Cc1ccccc1)=N\\NC(=O)CNC(=O)c1ccc(Br)cc1", "Potency": "inconclusive: 28.2 µM [inhibitor, partial curve]"}
{"smiles": "Cc1ccc(C(=O)NCC(=O)OCC(=O)c2ccc3c(c2)NC(=O)CO3)cc1C", "Potency": "inconclusive: 15.8 µM [inhibitor, partial curve]"}
{"smiles": "CC(NCc1cccc(OCc2ccccc2)c1)C(O)c1ccccc1", "note": "(configuration not stated)", "Potency": "inconclusive: 25.1 µM [inhibitor, partial curve]"}
{"smiles": "COC(=O)c1nnn(CC(=O)Nc2cc(F)ccc2F)c1C(=O)OC", "Potency": "inconclusive: 5.01 µM [inhibitor, single point]"}
{"smiles": "COC(=O)c1sccc1NC(=O)CSc1cc(Cl)ccc1Cl", "Potency": "inconclusive: 12.6 µM [inhibitor, partial curve]"}
{"smiles": "Cc1ccsc1C(=O)NC(C)c1ccc2c(c1)OCO2", "note": "(configuration not stated)", "Potency": "inconclusive: 50.1 µM [inhibitor, single point]"}
{"smiles": "O=c1[nH]c(=O)n(Cc2ccccc2)c2nc(-c3ccc(Oc4ccc(F)cc4)c([N+](=O)[O-])c3)n(CCO)c12", "Potency": "inconclusive: 14.1 µM [inhibitor, partial curve, poor fit]"}
{"smiles": "COc1cc(/C=N/NC(=S)NC2CC3CC2C2C=CCC32)ccc1O", "note": "(configuration not stated)", "Potency": "inconclusive: 15.8 µM [inhibitor, partial curve]"}
{"smiles": "Cc1cccc(NC(=O)CSc2nnc(N)s2)c1", "Potency": "inconclusive: 50.1 µM [inhibitor, partial curve]"}
{"smiles": "c1ccc2c(c1)NC1(CCCCCC1)n1c-2nc2ccccc21", "activity change, negative = displacement": "inactive: 41.5%"}
{"smiles": "COc1cc(C)c(C)cc1S(=O)(=O)N1CCN(Cc2ccc3c(c2)OCO3)CC1", "Potency": "inconclusive: 11.2 µM [inhibitor, partial curve]"}
{"smiles": "CC(C)Oc1ccc(N2CC(C(=O)NC3=NCCS3)CC2=O)cc1", "note": "(configuration not stated)", "Potency": "inconclusive: 35.5 µM [inhibitor, partial curve]"}
{"smiles": "COc1ccc(-c2csc(NC(=O)C3CC(=O)N(Cc4ccccc4)C3)n2)cc1OC", "note": "(configuration not stated)", "Potency": "inconclusive: 15.8 µM [inhibitor, partial curve]"}
{"smiles": "COc1cccc(C(C(=O)NC2CCCCC2)N(C(=O)Cc2cccs2)c2ccc(-n3cnnn3)c(OC)c2)c1", "note": "(configuration not stated)", "activity change, negative = displacement": "inactive: -4.92%"}
{"smiles": "COc1cc(C2NC(=O)NC(C)=C2C(=O)OCc2ccccc2)ccc1O", "note": "(configuration not stated)", "activity change, negative = displacement": "inactive: -4.79%"}
{"smiles": "CC(C)COc1ccc(C(=O)Nc2onc3c2CCCC3)cc1", "Potency": "inconclusive: 12.6 µM [inhibitor, partial curve]"}
{"smiles": "CCc1ccccc1NS(=O)(=O)c1ccc2[nH]cc(C(=O)NC3CCCC3)c(=O)c2c1", "Potency": "inconclusive: 35.5 µM [inhibitor, partial curve] and inconclusive: 891 nM [inhibitor, full curve]"}
{"smiles": "COC(=O)c1ccccc1NC(=O)CSc1ccccn1", "Potency": "inconclusive: 7.94 µM [inhibitor, partial curve]"}
{"smiles": "CCOc1ccc(C(=O)NCCc2sc(-c3cccc(F)c3)nc2C)cc1OCC", "Potency": "inconclusive: 35.5 µM [inhibitor, single point]"}
{"smiles": "CCC1(C)Cc2c(sc3nnn(CC(=O)Nc4ccc(C)cc4)c(=O)c23)CO1", "note": "(configuration not stated)", "Potency": "inconclusive: 12.6 µM [inhibitor, partial curve]"}
{"smiles": "Nc1nc(SCc2ccc(F)cc2)ns1", "Potency": "inconclusive: 11.2 µM [inhibitor, partial curve]"}
{"smiles": "Cn1c(CN2CCCC(C(=O)c3ccc4c(c3)OCO4)C2)nc2ccccc21", "note": "(configuration not stated)", "Potency": "inconclusive: 31.6 µM [inhibitor, partial curve]"}
{"smiles": "Cc1cc(S(=O)(=O)Nc2ccc(N(C)C)cc2)c(C)s1", "Potency": "inconclusive: 56.2 µM [inhibitor, single point]"}
